Laboratory results: PubChem BioAssay AID1159614 (National Center for Advancing Translational Sciences (NCATS), 2016)
The whole screen tested about 45,000 compounds, of which about 65 (0.1%) were called active. Calls come from the whole dose curve; as a rule, active = well fitted activation curve with a large enough effect; inconclusive = small, poorly fitted or top-dose-only effect; inactive = no such curve, though single readings can be large or run the other way. The list shows a part of the results.

target: Galactocerebrosidase (Homo sapiens) (UniProt P54803); assay: A Novel Cell-Based Assay to Identify Small Molecules for B -Galactocerebrosidase; conditions: 145M-Twi-hGALC-G270D cells (Twitcher mouse brain line with human GALC G270D), HMU-beta-Gal fluorescence, 48 h; series mostly up to 57.5 µM; activation: at the top concentration; note: 0% is about no effect; nearly all actives have a fitted effect of over 65% in size
How it was run: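 Brain-derived Twitcher mouse 145M-Twi cells stably expressing human GALC-G270D or wild-type GALC, treated live, then residual GALC activity read by fluorescence of HMU-b-Gal substrate (0.1 mM final) in citrate-phosphate buffer pH 5.2 with sodium taurocholate. Signal increase indicates enhancement.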

Chain of UniProt P54803 (P54803 whole entry, looked up): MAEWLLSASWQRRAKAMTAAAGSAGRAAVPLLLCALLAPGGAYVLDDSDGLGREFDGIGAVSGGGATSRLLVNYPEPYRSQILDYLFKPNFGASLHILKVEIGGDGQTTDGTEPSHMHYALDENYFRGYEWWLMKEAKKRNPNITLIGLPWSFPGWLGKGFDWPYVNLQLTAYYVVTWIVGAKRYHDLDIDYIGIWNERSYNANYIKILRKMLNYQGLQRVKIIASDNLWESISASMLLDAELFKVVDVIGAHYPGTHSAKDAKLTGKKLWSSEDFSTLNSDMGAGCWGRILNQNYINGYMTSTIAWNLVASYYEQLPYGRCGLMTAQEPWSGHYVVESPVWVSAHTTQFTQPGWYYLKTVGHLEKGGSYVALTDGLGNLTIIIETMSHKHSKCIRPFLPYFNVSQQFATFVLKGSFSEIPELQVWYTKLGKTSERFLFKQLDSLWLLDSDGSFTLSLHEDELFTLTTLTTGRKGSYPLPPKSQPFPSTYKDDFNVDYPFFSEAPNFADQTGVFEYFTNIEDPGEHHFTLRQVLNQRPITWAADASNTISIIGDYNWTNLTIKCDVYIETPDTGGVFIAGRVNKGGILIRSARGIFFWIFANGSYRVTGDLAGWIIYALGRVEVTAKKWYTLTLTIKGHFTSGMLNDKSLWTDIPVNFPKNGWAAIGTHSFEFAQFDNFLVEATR

activation, inactive:
Cc1cccc(NC(=O)Nc2ccc(C)c(C)c2)n1 -20%
COc1ccc(OC)c(NC(=O)C2CCN(S(=O)(=O)c3c(C)noc3/C=C/c3ccc(C)cc3)CC2)c1 -17.8%
CCC(C)n1c(=N)c(C(=O)NCc2ccco2)cc2c(=O)n3cc(C)ccc3nc21 (stereo unspecified) -14.4%
CC1CCCCN1CCCNC(=O)c1sc2ncccc2c1-n1cccc1 (stereo unspecified) -17.2%
CNC(=O)C1CCC(Cn2c(=O)c3sccc3n(CC(=O)Nc3cc(C)cc(C)c3)c2=O)CC1 (stereo unspecified) -7.9%
COc1cccc(NC(=O)Cn2nc(-c3ccncc3)ccc2=O)c1 -11.8%
CCOc1ccc(NC(=O)C(=O)NCCc2sc(-c3ccc(C)cc3)nc2C)cc1 -36.4%
CC(C)c1ccc(C(=O)CC2(O)C(=O)N(CCc3ccccc3)c3ccc(Cl)cc32)cc1 (stereo unspecified) -3.73%
O=C(c1c[nH]c2ccc(S(=O)(=O)Nc3ccccc3F)cc2c1=O)N1CCCCCC1 -5.32%
O=C(c1cnn(-c2ccc(F)cc2)c1-n1cccc1)N1CCN(c2cccc(Cl)c2)CC1 -44.1%
COc1ccc(CN2CCc3nc(N4CCN(c5ccc(F)cc5)CC4)ncc3C2)c(OC)c1OC -7.58%
CCOCCCNC(=O)C1CCN(c2nc3ccc(Cl)cc3[nH]2)CC1 -14.9%
Cc1cccc(Cn2c(CN3CCC(C(=O)NCc4ccccc4Cl)CC3)cc3ccccc32)c1 -43.6%
Cc1ccc(C(=O)Nc2cc(-c3nc4cc(Cl)ccc4o3)ccc2C)c(C)c1 -18.2%
COc1ccc(Cn2c(CNS(=O)(=O)c3ccc(Cl)s3)nc3cccnc32)cc1 -8.58%
O=S(=O)(NCc1csc(-c2ccccc2)n1)c1ccccc1 -7.59%
COC(=O)c1sc(N2C(=O)c3oc4cc(C)c(C)cc4c(=O)c3C2c2ccccc2F)nc1C (stereo unspecified) -3.85%
CCCN1C(=O)c2[nH]nc(-c3ccc(OC)cc3)c2C1c1ccccn1 (stereo unspecified) -17.1%
COc1ccc(Cl)cc1C(=O)NCC(c1ccc(N(C)C)cc1)N1CCCC1 (stereo unspecified) -19%
CN1CCN(c2c(F)cc3c(=O)c(C(=O)O)cn(CCF)c3c2F)CC1 -10.5%
Cc1ccc(C)c(NC(=O)Cn2c(=O)n(CCCS(=O)(=O)C3CCCCC3)c(=O)c3ccccc32)c1 2.76%
Cc1ccc(NC(=O)C2CCCN(S(=O)(=O)c3ccc4c(c3)CCCC(=O)N4)C2)cc1N(C)C (stereo unspecified) -6.13%
O=C(Cn1c(-c2cccs2)cc2cc(Cl)ccc21)N1CCCCC1 -3.22%
C[N+](C)(C)CC[N+]1(C)Cc2c(Cl)c(Cl)c(Cl)c(Cl)c2C1 -13.4%
Cc1ccc(-c2ccc(CCC(=O)O)n2-c2ccc(C)c(Cl)c2)cc1 -19.1%
O=C1CN(C(=O)c2c(F)cccc2Cl)C(c2ccc(F)cc2)c2cc(Br)ccc2N1 (stereo unspecified) -2.72%
Cn1c(=O)n(C)c2cc(N3CCOCC3)c(NS(=O)(=O)c3ccc(F)cc3)cc21 -11.3%
Cc1ccc2nc(/C(C#N)=C/c3ccc(-c4ccc(C(=O)OC(C)C)cc4)o3)[nH]c2c1 -6.11%
Cc1ccc2c(c1)c1c(c(=O)n(-c3ccccc3)c(=O)n1CC(=O)c1ccc(Cl)cc1)n2C -11.9%
CCOc1cc(C(=O)Nc2ccc(-c3nnc4n3CCCCC4)cc2)cc(OCC)c1OCC -9.14%
Fc1ccc(-c2nnn3c2nc(NCc2ccccc2)c2ccccc23)cc1 -4.1%
CCc1ccc(CNC(=O)C2CCN(C(=O)c3ccc(-n4c(C)cc5ccccc54)s3)CC2)cc1 -12.8%
COc1ccc(-n2c(=O)c3c4c(sc3n(CC(=O)C(C)(C)C)c2=O)CCCC4)c(OC)c1 7.42%
COC(=O)c1cccc(CN2C(=O)SC(Nc3ccccc3C)C2=O)c1 (stereo unspecified) -2.36%
CN(C(=O)CSc1nc2ccc(NC(=O)c3cccs3)cc2s1)c1ccccc1 1.23%
CCOc1ccc(NC(=O)CSc2nccn2C2CCCC2)cc1 -10.6%
O=C(Cn1nnc(-c2cccc(C(F)(F)F)c2)n1)NCc1ccc(F)cc1 -8.8%
CCc1ccc(CNC(=O)c2cc3cc4ccc(OC)cc4nc3o2)cc1 -19.6%
COc1ccc(C(=O)Nc2nc(-c3nnn(-c4cc(OC)ccc4OC)c3C)ns2)cc1 -1.8%
Cc1ccc(OCc2cc(=O)n3c(-c4ccccc4)csc3n2)cc1 8.13%
COc1cc(NC(=O)Nc2c[nH]c(=O)[nH]c2=O)cc(OC)c1OC -6.98%
CC(C)CCNC(=O)Cn1cc(S(=O)(=O)Cc2ccc(F)cc2)c2ccccc21 -7.44%
CCN(CC)S(=O)(=O)c1ccc2c(c1)c(=O)c(C(=O)N1CCN(c3ccccc3OC)CC1)cn2C -6.77%
COc1ccc(-c2cc(C(=O)NCc3ccc(C)cc3)c3cc(C(C)C)ccc3n2)cc1 -4.67%
Cc1ccc(NC(=O)C(=O)NCC(c2ccc3c(c2)OCO3)N2CCN(C)CC2)cc1C (stereo unspecified) -11.7%
Cc1c(C(=O)Oc2ccc(Br)cc2)sc2ncn(Cc3ccccc3F)c(=O)c12 -11.7%
CC(=O)N1c2ccc(S(=O)(=O)NCC3CCC(C(=O)Nc4cccc(C)c4)CC3)cc2CC1C (stereo unspecified) -3.65%
CCCC(=O)OC1=C(C(C)=O)N(Cc2ccccc2)S(=O)(=O)c2ccccc21 -13.1%
Cc1cc(S(=O)(=O)NCCc2csc(-c3cccc(F)c3)n2)ccc1F -21.7%
CCCCOc1ccc(S(=O)(=O)n2nc(C)c(S(=O)(=O)N3CCCCCC3)c2C)cc1 -8.74%
O=C1CCSC2(C(=O)N(Cc3ccccc3)c3ccccc32)N1c1ccccc1 (stereo unspecified) 4.75%
O=C(NCCCN1CCN(c2ccccc2F)CC1)c1sc2ncccc2c1-n1cccc1 -15.2%
COc1cccc2cc(-c3nc4ccc(C)cc4[nH]3)c(=O)oc12 -9.92%
CCN(Cc1ccccc1)S(=O)(=O)c1ccc(N2CCCCS2(=O)=O)cc1 -21.6%
CCc1ccc2nc(N3CCC(C(=O)NCCC(C)C)CC3)sc2c1 -14.4%
CCCCNC(=O)c1cnc2c(-c3ccc(OCC)c(OCC)c3)c(C)nn2c1-c1ccccc1 -15.5%
O=C(CCS(=O)(=O)c1cc2c(cc1Cl)NC(=O)CO2)NCc1ccccc1 -9.41%
CC(CNC(=O)Cn1ncc2c3ccccc3n(Cc3cccc(Cl)c3)c2c1=O)c1ccccc1 (stereo unspecified) -6.94%
COCCNC(=O)CSc1nc(-c2ccc(F)cc2)[nH]c1-c1ccc(Cl)cc1 -17.7%
O=C(COc1ccccc1)Nc1ccc(OCc2cc(=O)n3ccsc3n2)cc1 -11.5%
CCOc1ccc(C(=O)Nc2ccc(S(=O)(=O)N(Cc3ccccc3)c3ccccc3)cc2)cc1 -18.2%
